Data taken from PubChem BioAssay (NCI).
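Step 1: Grow cells in 96-well plates. Step 2: Expose to compound for 48 hours at 5 concentrations. Step 3: Interpolate endpoints linearly; if unreached, use highest concentration. TGI: total growth inhibition.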 A number of entries come with more than one value. This is not the full list of results. An entry can have further records. For some of these results: Records of one sample usually come from different ranges of test concentrations, which the source does not state; a value can be the end of its range. For some of these results: Values that stand side by side are repeats across runs, samples, wells, individuals or studies. A tag in brackets gives the origin of a value. Letters hold for one entry only.

Tests used:
Test in all cases: inhibition of tumour cell growth, NCI panel, 48 h
HCC-2998 colon = test system: HCC-2998 colon
SNB-19 CNS = test system: SNB-19 CNS
SNB-78 CNS = test system: SNB-78 CNS
XF 498 CNS = test system: XF 498 CNS
SK-MEL-28 melanoma = test system: SK-MEL-28 melanoma
SR leukemia = test system: SR leukemia
SF-539 CNS = test system: SF-539 CNS

COc1ccc(/C=C\c2cc(OC)c(OC)c(OC)c2)cc1
TGI (HCC-2998 colon): 377 nM and > 100 µM | TGI (SNB-19 CNS): 379 nM and > 100 µM | TGI (SNB-78 CNS): 0.577 nM and 89.2 µM | TGI (XF 498 CNS): 65.8 nM and 19.9 µM

NCCCN=c1ccc2c3c1c(O)c1c(O)ccc(=O)c1c3[nH]n2CCNCCO
TGI (SK-MEL-28 melanoma): > 250 µM [mean of 2 tests] and 15.2 µM [mean of 4 tests] | TGI (SR leukemia): 3.96 µM and > 250 µM

COc1cc2c3cc1Oc1c(OC)c(OC)cc4c1C(Cc1ccc(O)c(c1)Oc1ccc(cc1)CC3N(C)CC2)N(C)CC4 (configuration not stated)
TGI (SF-539 CNS): 87.3 µM [sample A] and 8.43 µM [sample B]
